This note sets out measurements from patent US20240360216A1 (NOVOPROTEIN SCIENTIFIC, published 2024).

The target in assay [1] is T1, FC labeled recombinant human CD3E (CP19 Novoprotein) (human, UniProt P07766 23-126).
T1 construct: extracellular domain; Bought (Novoprotein CP19); also called recombinant hCD3 protein (CP19, Novoprotein); not shown: Fc label of the bought protein
The assay can be described thus: Fortebio (BLI), FC labeled human CD3E (CP19) on protein A sensor, SC30A in gradient dilution.

In assay [2] the target is T2, FC labeled recombinant human CD19 (C572 Novoprotein) (human, UniProt P15391 20-291).
T2 construct: Bought (Novoprotein C572); not shown: Fc label of the bought protein
T2 sequence (looked up): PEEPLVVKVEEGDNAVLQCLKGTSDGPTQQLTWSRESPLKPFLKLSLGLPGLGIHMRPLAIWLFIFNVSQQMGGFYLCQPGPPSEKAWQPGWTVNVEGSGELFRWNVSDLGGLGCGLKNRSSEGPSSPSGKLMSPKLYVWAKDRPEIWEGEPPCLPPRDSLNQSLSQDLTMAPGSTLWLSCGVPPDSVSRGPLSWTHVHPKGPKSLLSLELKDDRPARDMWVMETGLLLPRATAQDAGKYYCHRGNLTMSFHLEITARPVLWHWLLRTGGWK
As to the kind of experiment: Fortebio (BLI), FC labeled human CD19 (C572) on protein A sensor, SC30A in gradient dilution. (In BLI a coated tip is dipped into the sample, and binding shifts an interference pattern.)

Assay [3] has as its target T3, CD19 on Raji cells (CD19+ tumor cells Raji) (UniProt P15391 20-556, limits assumed).
T3 sequence (looked up): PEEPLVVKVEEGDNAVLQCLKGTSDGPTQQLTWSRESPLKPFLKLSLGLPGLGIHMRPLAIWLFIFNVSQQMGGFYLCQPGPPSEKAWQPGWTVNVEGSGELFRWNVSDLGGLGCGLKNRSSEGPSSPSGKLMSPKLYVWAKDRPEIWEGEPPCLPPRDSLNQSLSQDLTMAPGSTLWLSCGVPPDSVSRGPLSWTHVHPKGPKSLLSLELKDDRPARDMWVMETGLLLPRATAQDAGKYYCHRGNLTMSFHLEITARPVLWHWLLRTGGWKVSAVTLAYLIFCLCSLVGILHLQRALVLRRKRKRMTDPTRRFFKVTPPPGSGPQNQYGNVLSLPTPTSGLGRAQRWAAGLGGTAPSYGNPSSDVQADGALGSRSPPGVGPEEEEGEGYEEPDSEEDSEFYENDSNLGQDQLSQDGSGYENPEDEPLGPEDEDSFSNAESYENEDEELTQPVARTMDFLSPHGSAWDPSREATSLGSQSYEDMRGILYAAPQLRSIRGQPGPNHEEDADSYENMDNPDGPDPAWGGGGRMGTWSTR
As to the kind of experiment: cell-based or functional assay.

The target of assay [4] is T4, monkey CD3E protein (Examples 4.2 and 7) (monkey, UniProt Q95LI5 22-117).
T4 construct: extracellular domain
T4 sequence (looked up): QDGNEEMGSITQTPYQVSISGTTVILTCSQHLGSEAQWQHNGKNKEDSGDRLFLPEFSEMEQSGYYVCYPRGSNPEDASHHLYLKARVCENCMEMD
The assay can be described thus: ELISA on monkey CD3E.

In assay [5] the target is T5, recombinant monkey CD3 protein (CW07, Novoprotein) (monkey, UniProt Q95LI5 22-117).
T5 construct: extracellular domain; Bought (Novoprotein CW07)
T5 sequence (looked up): T4 sequence (looked up)
The assay can be described thus: ELISA, recombinant monkey CD3 (CW07) coated on plate, scFv diluted 10 fold from 20 µg/ml. A general note: An ELISA detects its analyte on a solid surface through an enzyme-linked reagent.

Assay [6] addresses T1, FC labeled recombinant human CD3E (CP19 …). As to the kind of experiment: ELISA, recombinant hCD3 (CP19) coated on plate, scFv diluted 10 fold from 20 µg/ml.

T1 sequence (P07766 23-126): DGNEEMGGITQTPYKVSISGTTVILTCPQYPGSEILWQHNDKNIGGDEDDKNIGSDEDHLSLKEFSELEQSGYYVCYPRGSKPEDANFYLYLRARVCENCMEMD

B1: Bispecific antibody SC30A of CD3 and CD19 (bispecific antibody)
chain: DIQLTQSPASLAVSLGQRATISCKASQSVDYDGDSYLNWYQQIPGQPPKLLIYDASNLVSGIPPRFSGSGSGTDFTLNIHPVEKVDAATYHCQQSTEDPWTFGGGTKLEIKGGGGSGGGGSGGGGSQVQLQQSGAELVRPGSSVKISCKASGYAFSSYWMNWVKQRPGQGLEWIGQIWPGDGDTNYNGKFKGKATLTADESSSTAYMQLSSLASEDSAVYFCARRETTTVGRYYYAMDYWGQGTTVTVSSGGGGS[in this place about 120 residues]GGGGSGGGGSGGGGSQTVVTQEPSLTVSPGGTVTLTCGSSTGPVTGGNYPNWVQQKPGQAPRGLIGGTKFLAPGTPARFSGSLLGGKAALTLSGVQPEDEAEYYCVLWESNRWVFGGGTKLTVL
notes: Single chain: anti-CD19 scFv (from blinatumomab) - GGGGS - huVH5-(G4S)3-huVL5
With B1, in assay [1], the Kd was 1.48 nM, the koff was determined as 0.000474 s⁻¹ and the kon amounted to 320000 M⁻¹ s⁻¹. In assay [2], the dissociation constant Kd amounted to 0.502 nM, the koff came to 0.000656 s⁻¹ and the kon was found to be 1.31e+06 M⁻¹ s⁻¹. The “EC50, Jurkat-NFAT-Luc reporter gene method in the presence of target cells” value in assay [3] turned out to be 0.00136 µg/mL. The molecule further showed an EC50 in assay [4] of 1.24 µg/mL.

B2: Humanized CD3 single chain antibody huVH5VL5 (scFv)
scFv: [in this place about 120 residues]GGGGSGGGGSGGGGSQTVVTQEPSLTVSPGGTVTLTCGSSTGPVTGGNYPNWVQQKPGQAPRGLIGGTKFLAPGTPARFSGSLLGGKAALTLSGVQPEDEAEYYCVLWESNRWVFGGGTKLTVLHHHHHH
Regarding B2, the EC50 came out at 0.938 µg/mL in assay [5] and 0.364 µg/mL in assay [6].

The Kd is the free concentration of one partner at which half of the binding sites on the other are occupied at equilibrium, for simple one-to-one binding. One may read the koff as a measure of how fast the partners let go of each other. A word on the kon: it is a measure of how fast the partners come together. By EC50 is commonly meant the midpoint of the concentration-response curve.
